Results published in paper PMC8805618.
No constants are given. Whether binding was seen depends on the method and setting. In cells and extracts the contact can be indirect. Some results given as binding are weak or reduced against the parent protein; the word gives no strength.

Amino acid sequences for entries named in this document (tags omitted). A change or cut given only in a name is not applied to a line headed by its entry. Residues count along the entry.
UniProt Q9ERC8: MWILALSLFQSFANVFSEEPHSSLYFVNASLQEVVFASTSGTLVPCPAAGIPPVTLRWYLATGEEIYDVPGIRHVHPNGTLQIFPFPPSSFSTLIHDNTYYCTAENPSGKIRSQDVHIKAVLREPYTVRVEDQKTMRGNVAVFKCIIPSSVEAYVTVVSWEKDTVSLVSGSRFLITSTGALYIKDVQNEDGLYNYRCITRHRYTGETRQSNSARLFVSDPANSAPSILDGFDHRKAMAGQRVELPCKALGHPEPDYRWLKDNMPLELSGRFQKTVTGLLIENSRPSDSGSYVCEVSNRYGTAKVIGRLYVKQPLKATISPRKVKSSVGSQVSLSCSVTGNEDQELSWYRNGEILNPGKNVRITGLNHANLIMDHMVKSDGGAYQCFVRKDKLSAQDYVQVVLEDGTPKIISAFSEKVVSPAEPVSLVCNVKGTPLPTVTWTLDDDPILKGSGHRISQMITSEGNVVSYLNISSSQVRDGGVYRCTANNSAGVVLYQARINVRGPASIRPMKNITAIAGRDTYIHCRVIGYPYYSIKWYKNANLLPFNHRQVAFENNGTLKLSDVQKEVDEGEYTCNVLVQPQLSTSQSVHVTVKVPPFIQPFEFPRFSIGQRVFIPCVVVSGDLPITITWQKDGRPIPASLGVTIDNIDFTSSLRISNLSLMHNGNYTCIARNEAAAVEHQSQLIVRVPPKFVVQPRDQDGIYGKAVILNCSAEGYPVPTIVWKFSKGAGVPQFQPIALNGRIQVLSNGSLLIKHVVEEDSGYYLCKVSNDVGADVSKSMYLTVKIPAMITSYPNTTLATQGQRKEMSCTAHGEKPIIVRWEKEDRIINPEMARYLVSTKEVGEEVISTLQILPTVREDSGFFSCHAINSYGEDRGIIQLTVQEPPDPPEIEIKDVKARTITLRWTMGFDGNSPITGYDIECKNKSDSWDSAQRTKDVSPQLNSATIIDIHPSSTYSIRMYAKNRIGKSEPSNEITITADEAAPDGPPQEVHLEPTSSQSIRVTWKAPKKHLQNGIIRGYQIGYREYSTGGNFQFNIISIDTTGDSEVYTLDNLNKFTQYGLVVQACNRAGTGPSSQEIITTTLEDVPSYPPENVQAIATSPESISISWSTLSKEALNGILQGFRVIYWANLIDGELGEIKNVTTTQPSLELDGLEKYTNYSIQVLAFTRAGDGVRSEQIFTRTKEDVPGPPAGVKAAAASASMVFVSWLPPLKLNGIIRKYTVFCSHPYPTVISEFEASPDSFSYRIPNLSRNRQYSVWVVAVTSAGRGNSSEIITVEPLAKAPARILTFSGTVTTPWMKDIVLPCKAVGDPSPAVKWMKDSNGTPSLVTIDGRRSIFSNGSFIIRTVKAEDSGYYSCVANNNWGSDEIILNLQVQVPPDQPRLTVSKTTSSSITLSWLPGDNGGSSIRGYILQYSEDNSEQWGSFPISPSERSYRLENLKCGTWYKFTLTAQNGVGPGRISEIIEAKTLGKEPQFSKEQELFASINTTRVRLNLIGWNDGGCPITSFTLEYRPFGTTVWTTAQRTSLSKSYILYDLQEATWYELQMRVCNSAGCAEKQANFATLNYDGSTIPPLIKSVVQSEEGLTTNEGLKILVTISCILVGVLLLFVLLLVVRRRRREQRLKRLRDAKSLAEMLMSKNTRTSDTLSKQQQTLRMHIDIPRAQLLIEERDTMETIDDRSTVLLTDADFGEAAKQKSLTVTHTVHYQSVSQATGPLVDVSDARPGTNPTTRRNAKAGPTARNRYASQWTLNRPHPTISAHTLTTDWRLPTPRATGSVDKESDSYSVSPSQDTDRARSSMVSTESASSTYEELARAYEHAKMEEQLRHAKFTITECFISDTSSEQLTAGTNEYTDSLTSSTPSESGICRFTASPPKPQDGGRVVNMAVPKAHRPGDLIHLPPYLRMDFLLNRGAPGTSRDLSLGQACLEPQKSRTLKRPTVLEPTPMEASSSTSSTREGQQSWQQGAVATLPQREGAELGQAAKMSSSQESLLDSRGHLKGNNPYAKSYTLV
UniProt Q99K10, residues 46-843: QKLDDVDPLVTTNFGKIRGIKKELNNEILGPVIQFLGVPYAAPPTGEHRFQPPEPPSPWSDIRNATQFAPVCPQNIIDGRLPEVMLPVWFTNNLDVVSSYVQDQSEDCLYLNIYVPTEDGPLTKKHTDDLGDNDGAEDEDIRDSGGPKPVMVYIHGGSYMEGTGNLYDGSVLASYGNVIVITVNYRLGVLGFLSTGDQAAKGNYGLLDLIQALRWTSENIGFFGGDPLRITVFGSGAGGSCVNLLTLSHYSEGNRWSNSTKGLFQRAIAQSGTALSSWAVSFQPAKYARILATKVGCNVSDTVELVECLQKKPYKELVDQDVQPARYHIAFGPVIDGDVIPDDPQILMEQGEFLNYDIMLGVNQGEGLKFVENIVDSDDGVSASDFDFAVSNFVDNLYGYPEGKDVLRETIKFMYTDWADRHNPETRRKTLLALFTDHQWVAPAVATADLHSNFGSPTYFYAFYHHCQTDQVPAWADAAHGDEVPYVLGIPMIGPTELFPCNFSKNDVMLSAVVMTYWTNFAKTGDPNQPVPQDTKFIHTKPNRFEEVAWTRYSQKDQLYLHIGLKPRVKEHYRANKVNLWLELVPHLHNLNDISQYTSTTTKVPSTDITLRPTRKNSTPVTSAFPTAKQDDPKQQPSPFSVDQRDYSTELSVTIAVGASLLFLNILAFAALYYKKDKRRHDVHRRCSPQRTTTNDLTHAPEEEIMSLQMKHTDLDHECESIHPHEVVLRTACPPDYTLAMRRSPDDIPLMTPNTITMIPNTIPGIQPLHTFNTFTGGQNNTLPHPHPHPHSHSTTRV
UniProt B0F2B4, residues 19-945: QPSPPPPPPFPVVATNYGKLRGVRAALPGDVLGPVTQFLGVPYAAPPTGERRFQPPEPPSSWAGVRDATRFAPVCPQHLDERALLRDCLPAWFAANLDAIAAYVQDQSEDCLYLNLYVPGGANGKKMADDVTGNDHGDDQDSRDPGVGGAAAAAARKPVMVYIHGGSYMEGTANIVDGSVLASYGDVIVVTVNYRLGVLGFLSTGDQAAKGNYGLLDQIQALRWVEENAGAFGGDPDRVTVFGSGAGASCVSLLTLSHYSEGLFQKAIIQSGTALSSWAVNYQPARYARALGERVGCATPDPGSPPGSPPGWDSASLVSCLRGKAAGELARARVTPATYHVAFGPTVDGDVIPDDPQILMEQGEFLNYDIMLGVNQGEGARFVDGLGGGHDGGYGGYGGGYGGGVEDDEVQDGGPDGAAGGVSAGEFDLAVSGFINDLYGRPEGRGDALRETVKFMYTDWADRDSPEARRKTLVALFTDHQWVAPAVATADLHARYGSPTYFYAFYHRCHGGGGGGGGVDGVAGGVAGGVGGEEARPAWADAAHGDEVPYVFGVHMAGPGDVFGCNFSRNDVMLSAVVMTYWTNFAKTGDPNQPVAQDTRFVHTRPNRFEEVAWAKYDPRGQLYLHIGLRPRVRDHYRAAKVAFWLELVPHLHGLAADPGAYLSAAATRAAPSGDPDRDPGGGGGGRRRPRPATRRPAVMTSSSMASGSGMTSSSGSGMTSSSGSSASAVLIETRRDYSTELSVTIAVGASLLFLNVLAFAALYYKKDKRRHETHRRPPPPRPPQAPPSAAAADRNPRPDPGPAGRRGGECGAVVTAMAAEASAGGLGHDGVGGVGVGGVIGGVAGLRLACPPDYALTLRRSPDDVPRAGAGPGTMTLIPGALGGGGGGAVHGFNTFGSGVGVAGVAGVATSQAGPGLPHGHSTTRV
UniProt Q8BYM5, residues 35-825: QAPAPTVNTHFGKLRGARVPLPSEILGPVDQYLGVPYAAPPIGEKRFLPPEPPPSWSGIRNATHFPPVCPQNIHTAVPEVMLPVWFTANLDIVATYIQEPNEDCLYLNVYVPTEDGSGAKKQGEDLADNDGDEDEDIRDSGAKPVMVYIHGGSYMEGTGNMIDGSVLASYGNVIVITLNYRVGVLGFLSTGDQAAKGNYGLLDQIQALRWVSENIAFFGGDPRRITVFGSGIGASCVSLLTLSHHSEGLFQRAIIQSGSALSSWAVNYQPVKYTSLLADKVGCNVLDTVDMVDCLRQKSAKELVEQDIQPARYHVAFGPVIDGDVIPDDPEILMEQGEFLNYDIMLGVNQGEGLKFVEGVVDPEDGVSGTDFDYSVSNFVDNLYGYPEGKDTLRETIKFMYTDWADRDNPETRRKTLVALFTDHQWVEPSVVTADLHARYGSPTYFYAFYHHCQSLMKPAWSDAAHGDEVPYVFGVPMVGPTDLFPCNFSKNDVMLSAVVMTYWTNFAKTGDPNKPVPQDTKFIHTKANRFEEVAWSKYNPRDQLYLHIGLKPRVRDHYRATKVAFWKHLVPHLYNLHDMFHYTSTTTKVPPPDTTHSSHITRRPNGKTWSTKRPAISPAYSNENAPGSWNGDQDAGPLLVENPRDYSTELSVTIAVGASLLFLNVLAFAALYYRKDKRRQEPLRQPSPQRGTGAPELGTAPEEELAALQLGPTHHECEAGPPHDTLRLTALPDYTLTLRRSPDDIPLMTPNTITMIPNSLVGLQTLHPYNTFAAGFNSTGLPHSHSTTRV
UniProt Q69ZK9, residues 15-836: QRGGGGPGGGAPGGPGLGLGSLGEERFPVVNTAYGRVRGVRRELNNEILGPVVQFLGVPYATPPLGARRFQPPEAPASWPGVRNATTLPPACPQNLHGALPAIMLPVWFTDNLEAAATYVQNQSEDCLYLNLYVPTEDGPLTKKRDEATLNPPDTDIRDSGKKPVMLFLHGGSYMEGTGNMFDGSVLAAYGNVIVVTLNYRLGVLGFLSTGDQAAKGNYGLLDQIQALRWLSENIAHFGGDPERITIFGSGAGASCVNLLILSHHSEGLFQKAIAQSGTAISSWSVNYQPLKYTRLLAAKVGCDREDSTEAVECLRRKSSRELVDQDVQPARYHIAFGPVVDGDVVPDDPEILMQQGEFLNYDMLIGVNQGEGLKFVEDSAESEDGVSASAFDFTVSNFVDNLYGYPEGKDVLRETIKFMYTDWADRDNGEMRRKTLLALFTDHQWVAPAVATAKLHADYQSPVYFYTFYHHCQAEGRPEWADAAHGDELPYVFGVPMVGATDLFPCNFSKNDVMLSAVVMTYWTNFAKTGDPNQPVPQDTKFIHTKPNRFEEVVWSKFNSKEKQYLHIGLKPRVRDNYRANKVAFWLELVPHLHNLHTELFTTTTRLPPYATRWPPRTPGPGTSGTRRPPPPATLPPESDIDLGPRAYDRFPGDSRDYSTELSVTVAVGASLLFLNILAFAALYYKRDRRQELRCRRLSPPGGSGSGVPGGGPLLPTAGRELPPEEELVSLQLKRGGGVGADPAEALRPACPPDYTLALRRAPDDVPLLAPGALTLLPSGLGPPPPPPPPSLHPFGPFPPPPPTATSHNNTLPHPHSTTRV
UniProt P0DI97, residues 47-468: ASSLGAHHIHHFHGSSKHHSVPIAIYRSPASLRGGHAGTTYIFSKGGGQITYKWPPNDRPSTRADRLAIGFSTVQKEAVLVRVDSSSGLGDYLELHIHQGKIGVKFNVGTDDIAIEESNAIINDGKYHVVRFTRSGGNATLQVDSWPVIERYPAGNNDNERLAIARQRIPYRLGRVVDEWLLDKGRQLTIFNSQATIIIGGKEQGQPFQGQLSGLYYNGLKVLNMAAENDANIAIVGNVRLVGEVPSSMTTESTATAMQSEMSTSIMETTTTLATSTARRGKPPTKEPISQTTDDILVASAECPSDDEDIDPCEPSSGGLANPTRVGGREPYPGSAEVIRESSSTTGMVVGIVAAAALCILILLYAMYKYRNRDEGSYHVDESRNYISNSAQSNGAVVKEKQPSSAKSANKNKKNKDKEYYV

Experiments:
[1] = target: full-length mouse DSCAM with a C-terminal His-tag (mouse) (UniProt Q9ERC8); test: co-IP; HEK293T cells cotransfected with DSCAM-His and NLGNs or NRXNs; lysate immunoprecipitated with anti-His, blotted with anti-GFP and anti-His; buffer 20 mM Tris pH 7.6, 50 mM NaCl, 1 mM EDTA, 0.5% NP-40
[2] = target: NLGN1, construct immunoprecipitated with anti-FLAG antibody in Figure 8A (mouse) (UniProt Q99K10); test: co-IP; HEK293T cells cotransfected with NLGN1, NRXN1β and different amounts of DSCAM-His; lysates immunoprecipitated with anti-FLAG, blotted with anti-GFP, anti-FLAG and anti-His
[3] = target: NLGN4, construct of the co-immunoprecipitations of Figure 7A-C (mouse) (UniProt B0F2B4); test: co-IP; HEK293T cells cotransfected with DSCAM-His or FLAG-ECD and NLGNs; lysate immunoprecipitated with anti-GFP; buffer 20 mM Tris pH 7.6, 50 mM NaCl, 1 mM EDTA, 0.5% NP-40
[4] = target: neuroligin1 (NLGN1), construct of the co-immunoprecipitations of Figure 7A-C (mouse) (UniProt Q99K10); test: as above
[5] = target: NLGN3, construct of the co-immunoprecipitations of Figure 7A-C (mouse) (UniProt Q8BYM5); test: as above
[6] = target: NLGN2, construct of the co-immunoprecipitations of Figure 7A-C (mouse) (UniProt Q69ZK9); test: as above
[7] = target: endogenous DSCAM of mouse brain (mouse (endogenous in brain)) (UniProt Q9ERC8); test: co-IP; WT mouse brain lysates immunoprecipitated with anti-DSCAM, blotted with anti-DSCAM and anti-NLGN1

NLGN2, construct of the co-immunoprecipitations of Figure 7A-C (from UniProt Q69ZK9 15-836)
binding [1]: binds

NLGN4, construct of the co-immunoprecipitations of Figure 7A-C (from UniProt B0F2B4 19-945)
binding [1]: binds

full-length mouse DSCAM with a C-terminal His-tag (from UniProt Q9ERC8 18-2013)
binding [2]: binds
binding [3]: binds
binding [4]: binds
binding [5]: binds
binding [6]: binds

NRXN3α (from UniProt Q6P9K9 28-1571)
binding [1]: no binding

neuroligin1 (NLGN1), construct of the co-immunoprecipitations of Figure 7A-C (from UniProt Q99K10 46-843)
binding [1]: binds

endogenous NLGN1 of mouse brain (from UniProt Q99K10 46-843)
binding [7]: binds

NLGN3, construct of the co-immunoprecipitations of Figure 7A-C (from UniProt Q8BYM5 35-825)
binding [1]: binds

neurexin1β (NRXN1β), full length (from UniProt P0DI97 47-468)
binding [2]: binds
binding [1]: no binding

NRXN2α (from UniProt E9Q7X7 29-1710)
binding [1]: no binding

NRXN1α (from UniProt Q9CS84 31-1514)
binding [1]: no binding

FLAG-tagged secretable extracellular domain of DSCAM (from UniProt Q9ERC8 24-1594) (domain or fragment)
binding [3]: binds
binding [4]: binds
binding [5]: binds
binding [6]: binds
